Results are given in words; binding and its absence hold for the method and conditions named. For part of these data: Binding seen in cells or lysates may run through a third protein. Some binding calls cover weakened binding; strength is not graded here. For part of these data: Tags and fused reporters may be left off the sequences shown.

Chains of the proteins cited; added tags and fusions are not shown.
UniProt P20448: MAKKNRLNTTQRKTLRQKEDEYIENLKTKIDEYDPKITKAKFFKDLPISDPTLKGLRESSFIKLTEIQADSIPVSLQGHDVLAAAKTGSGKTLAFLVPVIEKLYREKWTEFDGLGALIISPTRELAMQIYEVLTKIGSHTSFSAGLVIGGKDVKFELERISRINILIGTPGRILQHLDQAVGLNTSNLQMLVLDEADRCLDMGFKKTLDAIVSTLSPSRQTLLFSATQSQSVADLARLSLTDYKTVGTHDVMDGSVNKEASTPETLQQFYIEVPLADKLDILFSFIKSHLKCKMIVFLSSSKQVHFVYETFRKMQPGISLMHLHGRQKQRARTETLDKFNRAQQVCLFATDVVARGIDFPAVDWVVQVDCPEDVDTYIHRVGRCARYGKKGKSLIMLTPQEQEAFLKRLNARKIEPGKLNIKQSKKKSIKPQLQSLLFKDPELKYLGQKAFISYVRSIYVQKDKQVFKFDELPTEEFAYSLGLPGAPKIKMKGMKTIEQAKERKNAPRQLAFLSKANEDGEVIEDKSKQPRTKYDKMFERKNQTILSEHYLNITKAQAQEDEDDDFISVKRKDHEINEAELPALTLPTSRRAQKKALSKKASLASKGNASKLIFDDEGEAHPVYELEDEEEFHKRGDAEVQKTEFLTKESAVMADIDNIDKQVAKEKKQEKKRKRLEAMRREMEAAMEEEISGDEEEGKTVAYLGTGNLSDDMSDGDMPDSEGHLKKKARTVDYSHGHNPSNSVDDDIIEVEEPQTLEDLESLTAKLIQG

Assay [1] deals with T1, myc-tagged Enp2 (9xmyc, natural promoter, double-tagged strain YSS7) (S. cerevisiae) (UniProt P48234).
T1 sequence: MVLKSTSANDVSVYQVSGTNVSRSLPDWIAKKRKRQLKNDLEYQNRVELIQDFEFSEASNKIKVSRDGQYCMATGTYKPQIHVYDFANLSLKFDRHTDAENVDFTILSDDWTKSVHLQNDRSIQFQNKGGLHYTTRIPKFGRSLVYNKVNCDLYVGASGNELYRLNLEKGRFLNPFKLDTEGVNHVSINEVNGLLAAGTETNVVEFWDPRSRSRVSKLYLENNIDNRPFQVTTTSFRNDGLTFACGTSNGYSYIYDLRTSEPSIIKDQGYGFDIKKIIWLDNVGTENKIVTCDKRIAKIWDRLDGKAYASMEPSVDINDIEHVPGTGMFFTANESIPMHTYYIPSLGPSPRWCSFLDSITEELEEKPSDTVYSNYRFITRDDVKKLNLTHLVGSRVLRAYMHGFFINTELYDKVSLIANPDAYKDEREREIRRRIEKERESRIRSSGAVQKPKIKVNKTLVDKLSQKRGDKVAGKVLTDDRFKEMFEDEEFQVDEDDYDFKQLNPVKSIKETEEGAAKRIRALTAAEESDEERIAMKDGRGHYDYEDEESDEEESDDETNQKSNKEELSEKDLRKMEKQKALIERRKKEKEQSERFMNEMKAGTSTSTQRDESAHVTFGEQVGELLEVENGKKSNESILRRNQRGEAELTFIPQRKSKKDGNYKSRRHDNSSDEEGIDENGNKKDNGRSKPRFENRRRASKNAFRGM
In words: co-IP; whole cell extracts of the double-tagged strain in TMN100 buffer (25 mM Tris-HCl pH 7.5, 100 mM NaCl, 10 mM MgCl2, 0.1% NP-40); protein-A agarose beads with anti-Dbp4, anti-Mpp10, anti-HA or anti-myc antibodies, 4°C, 1 h; western blot; also extracts of cells depleted of Bfr2 for 8 h in YPD (Figure 3D). Background: In western blotting, separated proteins are transferred to a membrane and probed.

Assay [2] has as its target T2, Mpp10 (endogenous) (S. cerevisiae (endogenous in the yeast strain)) (UniProt P47083).
T2 sequence: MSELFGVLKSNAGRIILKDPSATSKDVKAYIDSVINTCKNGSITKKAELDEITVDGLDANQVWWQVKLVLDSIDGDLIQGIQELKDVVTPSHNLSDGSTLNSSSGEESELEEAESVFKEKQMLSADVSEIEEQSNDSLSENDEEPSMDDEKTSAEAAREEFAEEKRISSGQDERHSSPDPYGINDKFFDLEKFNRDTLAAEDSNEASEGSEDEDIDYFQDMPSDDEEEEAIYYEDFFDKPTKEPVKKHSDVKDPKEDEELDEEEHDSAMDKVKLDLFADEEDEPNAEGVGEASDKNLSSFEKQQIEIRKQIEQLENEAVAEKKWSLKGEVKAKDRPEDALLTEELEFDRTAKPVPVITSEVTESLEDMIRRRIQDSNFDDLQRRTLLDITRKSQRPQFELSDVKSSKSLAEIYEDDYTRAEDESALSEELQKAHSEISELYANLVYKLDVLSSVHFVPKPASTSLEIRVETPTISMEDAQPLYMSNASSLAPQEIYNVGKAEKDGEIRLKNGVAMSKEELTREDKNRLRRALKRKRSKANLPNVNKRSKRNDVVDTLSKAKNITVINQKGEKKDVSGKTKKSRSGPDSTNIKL
Described as above.

For assay [3], the target named is T1, myc-tagged Enp2 (9xmyc, natural promoter, double-tagged strain YSS7) (S. cerevisiae). In words: co-IP; IPs on pooled sucrose gradient fractions 3–5 (the '50S' peak) of extracts of undepleted cells; anti-Dbp4, anti-myc, anti-HA; western blot.
For assay [4] the target is unchanged. The assay is described as follows: co-IP; as the IPs from whole cell extracts, but the extract was pre-incubated with 30 µg RNase A for 10 min at 37°C.
Assay [5] addresses T3, Enp2 (two-hybrid fusion, full length) (S. cerevisiae) (UniProt P48234).
T3 sequence: T1 sequence
In words: two-hybrid; directed assay in strain AH109; growth on SD–Trp–Leu–His with 2 mM 3-AT, 30°C (Figure 2, middle panel).

The target in assay [6] is T3, Enp2 (two-hybrid fusion, full length) (S. cerevisiae). In words: two-hybrid; directed assay in strain AH109; growth on SD–Trp–Leu–His with 20 mM 3-AT, 30°C (Figure 2, lower panel).
The target in assay [7] is Dbp4 (two-hybrid fusion, full length) (S. cerevisiae) (UniProt P20448). In words: two-hybrid; directed assay in strain AH109; growth on SD–Trp–Leu–His with 2 mM 3-AT, 30°C (Figure 2, middle panel).
For assay [8] the target is unchanged. The assay is described as follows: two-hybrid; directed assay in strain AH109; growth on SD–Trp–Leu–His with 20 mM 3-AT, 30°C (Figure 2, lower panel).
Assay [9] concerns the target T4, HA-tagged Bfr2 (3xHA, GAL1 promoter, double-tagged strain YSS7) (S. cerevisiae) (UniProt Q06631).
T4 sequence: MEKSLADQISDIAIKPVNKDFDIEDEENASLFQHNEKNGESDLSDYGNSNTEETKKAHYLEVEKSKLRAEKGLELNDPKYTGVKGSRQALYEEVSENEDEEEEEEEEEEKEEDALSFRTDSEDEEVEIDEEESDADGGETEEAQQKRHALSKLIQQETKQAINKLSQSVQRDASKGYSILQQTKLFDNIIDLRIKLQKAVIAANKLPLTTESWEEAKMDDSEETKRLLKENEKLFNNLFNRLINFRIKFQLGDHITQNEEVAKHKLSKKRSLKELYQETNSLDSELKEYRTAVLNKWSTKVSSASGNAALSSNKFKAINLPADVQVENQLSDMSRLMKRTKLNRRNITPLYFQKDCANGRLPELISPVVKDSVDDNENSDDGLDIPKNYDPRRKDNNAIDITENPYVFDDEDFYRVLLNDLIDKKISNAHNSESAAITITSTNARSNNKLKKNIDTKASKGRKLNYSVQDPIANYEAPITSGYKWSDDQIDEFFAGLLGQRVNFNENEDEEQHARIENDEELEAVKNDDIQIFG
In words: co-IP; whole cell extracts of the double-tagged strain in TMN100 buffer (25 mM Tris-HCl pH 7.5, 100 mM NaCl, 10 mM MgCl2, 0.1% NP-40); protein-A agarose beads with anti-Dbp4, anti-Mpp10, anti-HA or anti-myc antibodies, 4°C, 1 h; western blot; also extracts of cells depleted of Bfr2 for 8 h in YPD (Figure 3D).

B1: HA-tagged Bfr2 (3xHA, GAL1 promoter, double-tagged strain YSS7) (protein, UniProt Q06631 1-534)
chain: T4 sequence
With B1, the binding result in assay [1], in [2], in [3] and in [4] was “binds” throughout.

B2: Bfr2 (two-hybrid prey, full length) (protein, UniProt Q06631 1-534)
chain: T4 sequence
For the molecule B2, the binding result in assay [5] and in assay [6] was “binds” in each case.

B3: Nop6 (two-hybrid prey) (protein, UniProt Q07623 1-225)
chain: MGSEEDKKLTKKQLKAQQFRKSKEEKDQEKDVKKEQAPEGKRPNSAAGNDGEEPVKKKRKTRRGRGGKGKNGKKGNRFIVFVGSLPRDITAVELQNHFKNSSPDQIRLRADKGIAFLEFDADKDRTGIQRRMDIALLQHGTLLKEKKINVELTVGGGGNSQERLEKLKNKNIKLDEERKERLTKMINDGNQKKIAKTTATAAQTSGTDNKPVPAGIHPDRAKLLK
As to B3, the binding entry in assay [7] and in assay [8] was “no binding” throughout.

B4: Mpp10 (endogenous) (protein, UniProt P47083 1-593)
chain: T2 sequence
In the case of B4, the binding result in assay [9] is “binds”.

Source of the values: paper PMC3950691.
